Molecules are shown by their SMILES. About 220 (0.56%) of roughly 39,000 compounds showed activity. This is one part of the list.
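Also: static incubation at 37 °C against the wild-type strain, values averaged over two biological replicates.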

This test deals with Escherichia coli K-12 BW25113. In words: relative growth (OD600 normalised to plate interquartile mean) (fraction); higher = less growth inhibition, active = 0.2 or less. The settings on record: 50 µM; LB; incubation time: overnight (16-24 h).
For the compound `NC(=O)CSc1ccccn1`, the relative growth was inactive: 1.02.
In the case of `CO[C@@]1(C(=O)NN)COc2ccccc2O1` it was inactive: 1.03; in that of `Cc1nc(N2CCC3(CC2)CO[C@@H](C)[C@H]3N)c(CO)nc1-c1cccc(Cl)c1Cl`, inactive: 0.968.
For the compound `Cc1ccc(S(=O)(=O)N(C)C[C@H]2OCCCC[C@@H](C)Oc3ccc(NC(=O)CCC(F)(F)F)cc3C(=O)N([C@H](C)CO)C[C@@H]2C)cc1`, the relative growth was inactive: 1.02.
Turning to `COc1ccc(NC(=O)Nc2ccc3c(c2)C(=O)N([C@H](C)CO)C[C@H](C)[C@@H](CN(C)S(=O)(=O)c2cccs2)OCCCC[C@H](C)O3)cc1`, the relative growth was inactive: 1.04.
For the compound `Cc1ccc(S(=O)(=O)Nc2ccc3c(c2)CC(=O)N([C@@H](C)CO)C[C@@H](C)[C@H](CN(C)S(=O)(=O)c2cccs2)O3)cc1`, the relative growth is inactive: 0.985.
Turning to `C[C@@H]1CCCCO[C@H](CN(C)CC2CC2)[C@H](C)CN([C@@H](C)CO)C(=O)c2cc(NC(=O)C3CCCCC3)ccc2O1`, the relative growth was inactive: 0.871.
The result for `COC(=O)c1ccccc1S(=O)(=O)NC(=O)Nc1nc(C)c2c(n1)CCS(=O)(=O)C2` reads inactive: 1.01.
On to `C[C@@H]1CN([C@H](C)CO)C(=O)c2cccc(NC(=O)Nc3cccc4ccccc34)c2O[C@@H]1CN(C)CC1CCCCC1`, for which the relative growth is inactive: 0.999.
Regarding `CCS(=O)(=O)Nc1ccc2c(c1)C(=O)N(C)[C@@H]1CC[C@H](CC(=O)NCCOC)O[C@H]1CO2`, the relative growth was inactive: 0.986.
In the case of `COc1ccc(NC(=O)Nc2ccc3c(c2)C(=O)N([C@H](C)CO)C[C@@H](C)[C@H](CN(C)C(=O)Nc2ccc4c(c2)OCO4)OCCCC[C@@H](C)O3)cc1` it was inactive: 1.03; in that of `C[C@@H]1CN([C@@H](C)CO)C(=O)c2cc(NS(=O)(=O)c3cccs3)ccc2O[C@@H]1CN(C)Cc1ccc(-c2ccccc2)cc1`, inactive: 0.975.
On to `C[C@@H]1CN([C@@H](C)CO)C(=O)c2cc(NS(=O)(=O)c3ccc(Cl)cc3)ccc2O[C@@H](C)CCCCO[C@H]1CN(C)CC1CCCCC1`, for which the relative growth is inactive: 0.979.
The result for `CC(C)NC(=O)N(C)C[C@@H]1Oc2ccc(NC(=O)Nc3ccc4c(c3)OCO4)cc2CC(=O)N([C@@H](C)CO)C[C@@H]1C` reads inactive: 0.979.
Turning to `O=C(C[C@@H]1C[C@@H]2c3cc(NC(=O)NC4CCCC4)ccc3O[C@@H]2[C@@H](CO)O1)NCc1ccc2c(c1)OCO2`, the relative growth was inactive: 1.02.
For `C[C@@H]1CCCCO[C@@H](CN(C)C(=O)Nc2ccc3c(c2)OCO3)[C@H](C)CN([C@@H](C)CO)C(=O)c2cc(NC(=O)Nc3cccc4ccccc34)ccc2O1`, the relative growth was inactive: 1.06.
In the case of `NCC[C@H](O)C(=O)N[C@@H]1C[C@H](N)[C@@H](O[C@H]2O[C@H](CN)[C@@H](O)[C@H](O)[C@H]2O)[C@H](O)[C@H]1O[C@H]1O[C@H](CO)[C@@H](O)[C@H](N)[C@H]1O` it was active: 0.0379.
`Cc1ccc(S(=O)(=O)Nc2ccc3c(c2)C(=O)N([C@@H](C)CO)C[C@H](C)[C@H](CN(C)Cc2ccc(Cl)c(Cl)c2)O3)cc1`: the relative growth was inactive: 0.983.
In the case of `C[C@@H]1CN([C@@H](C)CO)C(=O)c2cccc(NS(=O)(=O)c3ccc(F)cc3)c2O[C@@H]1CN(C)S(C)(=O)=O` it was inactive: 0.953; in that of `CC(=O)N[C@H](Cc1ccc2ccccc2c1)C(=O)N[C@H](Cc1ccc(Cl)cc1)C(=O)N[C@H](Cc1cccnc1)C(=O)N[C@@H](CO)C(=O)N(C)[C@@H](Cc1ccc(O)cc1)C(=O)N[C@H](CC(N)=O)C(=O)N[C@@H](CC(C)C)C(=O)N[C@@H](CCCCNC(C)C)C(=O)N1CCC[C@H]1C(=O)N[C@H](C)C(N)=O`, inactive: 1.
Consider `C[C@H](CO)N1C[C@H](C)[C@@H](CN(C)C(=O)CCC(F)(F)F)OCCCC[C@H](C)Oc2ccc(NC(=O)C3CCCCC3)cc2C1=O`, for which the relative growth is inactive: 0.982.
In the case of `C[C@@H]1O[C@@H](O[C@@H]2C=C(CO)[C@H]3[C@H](O[C@@H]4O[C@H](CO)[C@@H](O)[C@H](O)[C@H]4O)OC=C[C@H]32)[C@H](O)[C@H](O)[C@H]1OC(=O)/C=C/c1ccccc1` it was inactive: 0.989; in that of `Cc1cc(C(=O)Nc2cccc3c2O[C@@H](CN(C)S(=O)(=O)c2c(C)noc2C)[C@@H](C)CN([C@H](C)CO)C3=O)n(C)n1`, inactive: 1.03.
As to `COCC#Cc1ccc2c(c1)O[C@@H](CN(C)C(=O)C1CCOCC1)[C@H](C)CN([C@@H](C)CO)S2(=O)=O`, the relative growth was inactive: 1.01.
Consider `C[C@@H]1CN([C@@H](C)CO)S(=O)(=O)c2ccc(C#CC3CC3)cc2O[C@@H]1CN(C)Cc1cccc(F)c1`, for which the relative growth was inactive: 1.02.
In the case of `COc1ccc(CN(C)C[C@@H]2Oc3ccc(NC(=O)Nc4cccc5ccccc45)cc3C(=O)N([C@@H](C)CO)C[C@@H]2C)cc1`, the relative growth was inactive: 0.968.
On to `Cc1ccc(S(=O)(=O)N(C)C[C@@H]2Oc3cc(Br)ccc3S(=O)(=O)N([C@@H](C)CO)C[C@@H]2C)cc1`, for which the relative growth is inactive: 1.04.
In the case of `CNC1CC(N)C(O)C(OC2OC(CO)C3OC4(OC(C(N)CO)C(O)C(O)C4O)OC3C2O)C1O` (centres undefined), the relative growth was inactive: 0.949.
In the case of `O=C1CN(S(=O)(=O)Cc2ccccc2)C[C@@H]2[C@@H](c3ccc(C#Cc4ccc(F)cc4)cc3)[C@H](CO)N12` it was inactive: 1.02; in that of `C[C@@H]1CN([C@H](C)CO)C(=O)CCCn2cc(nn2)CO[C@@H]1CN(C)S(=O)(=O)c1ccc(-n2cccn2)cc1`, inactive: 0.985.
Turning to `C[C@H](CO)N1C[C@H](C)[C@H](CN(C)C(=O)Nc2ccc(C(F)(F)F)cc2)Oc2c(NC(=O)c3ccc(-c4nccs4)cc3)cccc2C1=O`, the relative growth is inactive: 1.01.
As to `CC(C)NC(=O)Nc1cccc2c1O[C@@H](CN(C)S(=O)(=O)c1cccs1)[C@H](C)CN([C@H](C)CO)C2=O`, the relative growth was inactive: 0.996.
With `C[C@@H]1CCCCO[C@@H](CN(C)C(=O)Nc2cccc3ccccc23)[C@@H](C)CN([C@H](C)CO)C(=O)c2cc(NS(=O)(=O)c3ccc(Cl)cc3)ccc2O1`, the relative growth was inactive: 1.01.
For the compound `CC(C)NC(=O)N(C)C[C@H]1Oc2c(NS(=O)(=O)c3cccs3)cccc2C(=O)N([C@H](C)CO)C[C@H]1C`, the relative growth is inactive: 0.992.

Source of the values: the supplement of paper PMC9446081.
